Some of the results follow. At the low end of the ranking, values are background and their order means little.

In this assay the target is GST-SBP-SLBP (stem-loop binding protein) (UniProt Q14493). The assay can be described thus: targeted RNA Bind-n-Seq.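 Note: DESeq read counts versus GST-SBP nonspecific binding control pulldown.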 To be noted: RBNS binding buffer: 25 mM Tris pH 7.5, 150 mM KCl, 3 mM MgCl2, 0.1% Tween, 0.5 mg/mL BSA, 1 mM DTT; 27 nM protein, 750 pM RNA pool; temperature not stated; high values mean tight binding.
In the case of “GGUCACGUCUCAAUCAACUCAUCCUCCAGGGAAACCCCUGGUUUUCUCAACAGCUCGCAGUCAAG”, the binding signal (log2 fold change) was 0.0442. Turning to “GGUCACGUCUCAAUCAACUCAAUUCCCAGGGAAAACCCUGGUUAAUUCAACAGCUCGCAGUCAAG”, the binding signal (log2 fold change) was -0.132. With “GGUCACGUCUCAAUCAACUCAUUCUCCAGGGAAAGCCCUGGUAAUCUCAACAGCUCGCAGUCAAG”, the binding signal (log2 fold change) was -0.0677. The result for “GGUCACGUCUCAAUCAACUCAUUUCCAGGAGUUUUCUCCUGUAGUCUCAACAGCUCGCAGUCAAG” reads 0.0455; that for “GGUCACGUCUCAAUCAACUCAACGCCAGGAGUUUGCUCCUGUAAUUUCAACAGCUCGCAGUCAAG”, 0.113; that for “GGUCACGUCUCAAUCAACUCCCCGGAGGGGGGGAAAACCCCUUUACCCUCGUAUUCAACAGCUCGCAGUCAAG”, -0.297. The result for “GGUCACGUCUCAAUCAACUCAAUCCCAGGAGUUUCCUCCUGUAAUCUCAACAGCUCGCAGUCAAG” reads -0.0297; that for “GGUCACGUCUCAAUCAACUCAUUUUCCAGGGAAAACCCUGGCUAUCUCAACAGCUCGCAGUCAAG”, 0.0199; that for “GGUCACGUCUCAAUCAACUCAUCUCCAGGAGUUUGCUCCUGUAUACUCAACAGCUCGCAGUCAAG”, 0.147. Under “GGUCACGUCUCAAUCAACUCAUUCGAGGGGGGGAAAACCCCUUUACCCUCAUUAUCAACAGCUCGCAGUCAAG” stands 0.0932; under “GGUCACGUCUCAAUCAACUCCUCAGAGGGGGGGAAAACCCCUUUACCCUCCAUCUCAACAGCUCGCAGUCAAG”, 0.0333.

Regarding “GGUCACGUCUCAAUCAACUCAUUCUCAGGAGUUUUCUCCUGCUAUCUCAACAGCUCGCAGUCAAG”, the binding signal (log2 fold change) is -0.0264.

As to “GGUCACGUCUCAAUCAACUCUAUUUCCAGGGAAAGCCCUGGCAUGUUCAACAGCUCGCAGUCAAG”, the binding signal (log2 fold change) was determined as 0.211. Under “GGUCACGUCUCAAUCAACUCUUUCCCAGGAGUUUCCUCCUGCAUACUCAACAGCUCGCAGUCAAG” stands 0.123.

Regarding “GGUCACGUCUCAAUCAACUCUACUCCAGGAGUUUACUCCUGCAUAUUCAACAGCUCGCAGUCAAG”, the binding signal (log2 fold change) was -0.00162. In the case of “GGUCACGUCUCAAUCAACUCAAUCUCAGGAGUUUCCUCCUGUUAUCUCAACAGCUCGCAGUCAAG”, the binding signal (log2 fold change) came to 0.0969. Take “GGUCACGUCUCAAUCAACUCACUAGAGGGGGGGAAAACCCCUUUACCCUCGUAUUCAACAGCUCGCAGUCAAG”: the binding signal (log2 fold change) is -0.14. The result for “GGUCACGUCUCAAUCAACUCAAUUUCCAGGGAAAUCCCUGGCUAUCUCAACAGCUCGCAGUCAAG” reads -0.0468. The result for “GGUCACGUCUCAAUCAACUCAGUUUCAGGAGUUUCCUCCUGCAUUCUCAACAGCUCGCAGUCAAG” reads 0.256. Regarding “GGUCACGUCUCAAUCAACUCUUCCUCCAGGGAAAGCCCUGGUAAUUUCAACAGCUCGCAGUCAAG”, the binding signal (log2 fold change) is 0.0815. Under “GGUCACGUCUCAAUCAACUCCCUAGAGGGGGGGAAAACCCCUUUGCCCUCGUUUUCAACAGCUCGCAGUCAAG” stands 0.0251.

These data come from article PMC5892938.
